In PubChem BioAssay AID1508624 (National Center for Advancing Translational Sciences (NCATS), 2021):
The whole screen tested about 48,000 compounds, of which about 120 (0.25%) were called active. Roughly 4% stayed inconclusive and do not appear here. The call rests on the fitted dose curve; in most records, active means well fitted activation curve with a large enough effect; inconclusive means small, poorly fitted or top-dose-only effect, or another doubt; inactive means no such curve, though single readings can be large or run the other way. This is one part of the list.

Experiment: Primary qHTS for Identification of Small Molecule Activators of Huntingtin-Antisense Promoter Activity; further: nearly all actives have a fitted effect of over 55% in size
Details: HEK293 HTT-AS promoter firefly luciferase reporter, 24 h; series mostly up to 57.5 µM; activity change, positive = activation: at the top concentration
Outline: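 Luminescence was read after Dual-Glo reagent and a 10 min room-temperature incubation. Values were normalized to vehicle (0% activity) and zero RLU (-100% activity). Reporter HEK293 cells had been exposed to compounds (up to 57.5 uM final) for 24 h.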

Activity change, positive = activation, inactive:
COc1ccccc1N(CC(=O)NCCSCc1cccc(Cl)c1)S(C)(=O)=O -25.9%
CCCCNC(=O)C1CCN(S(=O)(=O)c2ccc3c(ccn3CC)c2)CC1 -15.7%
CC(C)NC(=O)C1CCN(C(=O)c2cc3sccc3n2Cc2ccc(Cl)cc2)CC1 -60.1%
Cc1cc(C)c(NC(=O)c2ncoc2-c2ccco2)c(C)c1 -13.5%
CC(=O)N1C[C@H](O)C[C@H]1C(=O)O -7.18%
CC(=O)c1ccc(NC(=O)c2ccc(-c3nc(CSc4ccccc4)c(C)o3)cc2)cc1 -31.2%
Fc1ccc(-c2noc3ncnc(NCC4CCN(Cc5ccc(Cl)cc5)CC4)c23)cc1 -31.3%
COc1cc(NC(=O)c2cc(C)nc3c2c(C)nn3-c2ccccc2Cl)cc(OC)c1 -24.3%
CO[C@@]1(NC(=O)CSC[C@@H](N)C(=O)O)C(=O)N2C(C(=O)O)=C(CSc3nnnn3C)CS[C@@H]21 -11.6%
Cc1ccc2cc3c(N)nn(C(=O)c4cccc(F)c4)c3nc2c1 11.2%
Cc1cc2nc3c(=O)[nH]c(=O)nc-3n(CC(O)C(O)C(O)CO)c2cc1C (stereo not drawn) -7.81%
COc1ccc(CCNC(=O)c2cnc3sc(N4CCCC4)nn3c2=O)cc1OC -12.6%
CN(C(=O)c1cc2c(s1)-c1ccc(Cl)cc1SC2)c1cccc(C(F)(F)F)c1 -1.79%
O=C(CN1C(=O)COc2ccc(S(=O)(=O)N3CCCCC3)cc21)NCc1ccc(Cl)cc1 -27.3%
Cc1ccc(CNC(=O)c2nnn(CC(=O)Nc3cc(C)ccc3C)c2N)cc1 0.403%
CSCCC(NS(=O)(=O)c1ccc2c(c1)oc(=O)n2C)C(=O)N1CCN(c2cccc(Cl)c2)CC1 (stereo not drawn) -27.8%
CCOC(=O)c1cc(-c2ccc(F)cc2)n(CCC(=O)NCCc2ccc(C)cc2)c1C -34.3%
Cc1ccc(CN(Cc2ccco2)C(=O)COc2ccc(Cl)cc2)o1 -32.7%
CCc1ccccc1NS(=O)(=O)c1ccc(NC(=O)N2CCCC2)cc1 5.07% [at 11.5 µM, percent change from vehicle, -100% = no light]
CCOc1ccc(-c2cc(-c3nc(-c4cc(OC)c(OC)c(OC)c4)no3)[nH]n2)cc1 -1.52%
O=C(Nc1ccc2nc(SCC(=O)N3CCCc4ccccc43)sc2c1)c1ccccc1 -28.7%
CCOC(=O)c1ccc(NC(=O)Nc2cc3c(cc2N2CCCC2)n(C)c(=O)n3C)cc1 -19.5%
Cc1cc(CC(=O)O)n(C)c1C(=O)c1ccc(Cl)cc1 -6.19%
COC(=O)c1cc(NC(=O)c2nn(C)c3c2COc2ccccc2-3)cc(C(=O)OC)c1 -2.89%
Nc1c(C(=O)Nc2ccc(F)c(F)c2)sc2nc(-c3ccncc3)ccc12 5.54%
COc1cccc(CNC(=O)c2cc(C)nc3c2c(C)nn3-c2cccc(F)c2)c1 -14.8%
COc1ccc(S(=O)(=O)Nc2ccc3c(c2)CCCN3S(=O)(=O)c2ccc(C)cc2)cc1F -28.8%
COc1ccccc1NC(=O)C1=C(C)Nc2nc(SCc3ccccc3F)nn2C1c1cccs1 (stereo not drawn) -25.3%
O=C(COCc1cc(-c2ccc3c(c2)OCO3)on1)N1CCN(c2ccccc2)CC1 -9.73%
COc1cc(-c2nn(C3CCC(N4CCN(C(C)=O)CC4)CC3)c3ncnc(N)c23)ccc1NC(=O)c1cc2ccccc2n1C (stereo not drawn) -24.4%
Cc1ccc(S(=O)(=O)NCCc2cn3ccsc3n2)cc1 -7.07%
CCC(CC)C(=O)Nc1nc2c(s1)CC(C)CC2 (stereo not drawn) 6.06% [at 11.5 µM, percent change from vehicle, -100% = no light]
COc1ccc(-n2nnnc2C2CCN(S(=O)(=O)c3ccc(C(C)(C)C)cc3)CC2)cc1 -6.45%
NS(=O)(=O)c1cccc2c1C(=O)c1cccc(O)c1C2=O -93.9%
Cc1cc(C)cc(NC(=O)Cn2nnc(-c3nc(-c4ccncc4)no3)c2N)c1 0.345%
Cc1cc2c(cc3c(SCc4nc(-c5ccccc5)oc4C)nnc(C)n32)o1 -19.9%
Cc1ccc(N2CCN(S(=O)(=O)c3ccc(F)c(C(=O)Nc4ccc(Cl)cc4Cl)c3)CC2C)cc1 (stereo not drawn) -15.3%
CCn1ccc2c(OCC(=O)Nc3ccccc3C)cccc2c1=O -20.9%
CC(C)c1ccc(OCC(=O)N(Cc2ccc(N(C)C)cc2)C2CCS(=O)(=O)C2)cc1 (stereo not drawn) -11%
C=Cc1ccc(CSc2nc(-c3ccc(C)cc3)nc3c2Cc2c(CO)cnc(C)c2O3)cc1 -12.2%
O=C(Nc1cccc(C(=O)OCc2cc(=O)n3c4c(sc3n2)CCCC4)c1)c1ccccc1 -5.72%
Cc1cccc(NC(=O)C(NS(=O)(=O)c2ccc3c(c2)oc(=O)n3C)C(C)C)c1 (stereo not drawn) -12.6%
O=c1c(S(=O)(=O)c2cccc(Cl)c2)cn(Cc2ccccc2)c2cc(N3CCOCC3)c(F)cc12 5.2%
O=C1NC(=O)C(=Cc2ccc(-c3ccc(F)cc3)o2)S1 -13.7%
Cc1ccc2nc(-c3cccnc3)c(Nc3ccccc3C)n2c1 -21.8%
CCOc1ccc(S(=O)(=O)Nc2nc3ccccc3nc2Nc2ccc(OC)cc2)cc1 -18.7%
CCc1ccc(NC(=O)Cn2c(=O)n(Cc3ccco3)c(=O)c3cccnc32)cc1 -31.2%
CCCNC(=O)CCSc1nc(-c2ccc3c(c2)OCO3)cc(C(F)(F)F)n1 -13.5%
Cc1cc(C)c2nc(N(Cc3cccnc3)C(=O)CCOc3ccccc3)sc2c1 -1.42%
COc1ccccc1CCNS(=O)(=O)c1ccc(N2CCCCS2(=O)=O)cc1 -17%
COc1ccc(NC(=O)CCc2nnc3n(CC(C)C)c(=O)c4ccccc4n23)cc1 -10.7%
CCc1ccccc1NC(=O)C1CCCN(c2ncnc3onc(C)c23)C1 (stereo not drawn) -18.6%
COc1ccc(CNC(=O)c2ccc(CS(=O)Cc3ccccc3Cl)o2)cc1 (stereo not drawn) -7.88%
CC12CCC(CC1)C(C)(C)O2 -0.333%
Cc1ccc(C2c3[nH]c4ccccc4c3CCN2C(=O)CCC2CCCC2)cc1 (stereo not drawn) -34.8%
Cc1ccc(-n2nc(C(=O)N3CCN(c4cc(Cl)ccc4C)CC3)c3c4ccccc4n(C)c3c2=O)cc1 3.91%
Cc1ccc(Cl)cc1-n1ncc2c(Nc3cccc(C)c3C)ncnc21 -18.3%
O=C(c1ccc(CSc2nc3ccncc3n2Cc2ccccc2)cc1)N1CCCCCC1 1.65%
Cc1ccc(NC(=O)Cn2ccn(-c3ccc(F)c(F)c3)c(=O)c2=O)cc1C -4.57%
CCc1nn2c(=O)cc(COC(=O)c3ccccc3NC(=O)C3CCCCC3)nc2s1 5.02%
CCc1ccccc1NC(=O)CCc1c(C)nn(-c2ccc(N3CCOCC3)nn2)c1C 13.1%
CC(=O)Nc1ncc([N+](=O)[O-])s1 -0.859%
CCc1ccc(CNCc2c(C(=O)O)n(Cc3ccc(F)cc3Cl)c3cc(OC)ccc23)cc1 -62.3%
O=C(c1ccc(F)cc1)n1nc(-c2ccccc2)nc1NCc1ccc(F)cc1 7.73%
COc1cc2ccccc2cc1C(=O)N1CCN(c2nc3ccc(F)cc3s2)CC1 -42%
COc1cc(CCC(=O)NCc2ccc3c(c2)CCN3C(=O)c2ccc(F)cc2)cc(OC)c1OC -5.31%
CCOC(=O)c1c(SCC(=O)Nc2cc(Cl)cc(Cl)c2)nc(=O)[nH]c1C -9.29%
CCCCNC(=O)C1CCC(CNS(=O)(=O)c2ccc(NC(C)=O)cc2)CC1 (stereo not drawn) -8.21%
COc1ccc(-c2nc3c(c(SCC(=O)N(C)c4ccccc4)n2)Cc2cc(C)ccc2O3)cc1 15%
COc1ccc2ncc3c(-c4ccc(C)c(C)c4)nn(CC(=O)NC4CCCC4)c3c2c1 -9.78%
Cc1ccc2nc(NCc3ccc(F)cc3)c3nncn3c2c1 -3.46%
Cc1nc(-c2ccc(S(=O)(=O)NCc3ccc(N(C)C)cc3)cc2)co1 -36.1%
Cc1cccc(-n2ncc3c(N4CCN(c5ccccc5)CC4)ncnc32)c1 -21.1%
CCN(CC)c1ccc(NC(=O)Cn2nc(C)n3cccc3c2=O)c(C)c1 -6.81%
CCc1ccc(NC(=O)Cn2cc(S(=O)(=O)N3CCCC3)c(S(=O)(=O)N3CCCC3)c2)cc1 1.06% [at 11.5 µM, percent change from vehicle, -100% = no light]
CC(C)NC(=O)CCN1C(=O)c2ccccc2Sc2ncccc21 -8.35%
O=C(NC1CC(=O)N(c2ccc(F)cc2)C1)C1CC1 (stereo not drawn) -13.3%
COc1ccc2oc(=O)c(-c3nc(-c4cccs4)no3)cc2c1 -16.7%
Cc1ccc(NC(=O)Cn2nnc(C(=O)NCc3ccc4c(c3)OCO4)c2N)cc1Cl -20.5%
CSc1nc2sc3c(c2c(=O)n1-c1ccccc1)CCC(C(C)(C)C)C3 (stereo not drawn) -5.12%
Cc1cc(C)cc(NC(=O)CCCc2nc(-c3ccccc3Cl)no2)c1 -12.4%
COc1ccc(Cn2c(=O)[nH]c3cc(C(=O)N4CCN(c5cc(Cl)ccc5C)CC4)ccc3c2=O)cc1 -11.7%
COc1ccc(-c2nn(-c3cccc(F)c3)c3c2cnc2cc(OC)c(OC)cc23)cc1 -22.8%
COc1ccc2[nH]cc(S(=O)(=O)c3ccc(C)c(C)c3)c(=O)c2c1 -34.7%
O=C(CCCCn1c(=O)c2ccccc2n(CC(=O)Nc2cccc(F)c2)c1=O)NCCc1ccccc1 -3.4%
CCN1/C(=C/C=C/c2sc3ccccc3[n+]2CC)Sc2ccccc21 -65.9% [at 25.1 µM, percent change from vehicle, -100% = no light]
Cc1ccc(NC(=O)Cn2c(=O)n(Cc3nc(-c4ccccc4)no3)c(=O)c3cc4c(cc32)OCO4)c(C)c1 -9.24%
COc1ccc(CCNC(=O)CSc2n[nH]c(-c3ccccc3Cl)n2)cc1OC -18.4%
COc1ccc(Cl)cc1NC(=O)CSC1=Nc2ccccc2C2=NC(CC(=O)NCc3cccs3)C(=O)N12 (stereo not drawn) -17.9%
O=C(NCc1ccccc1)c1cnc(N2CCCCC2)c2ccccc12 7.3%
COc1cccc(Nc2nc3ccc(C)cc3nc2-n2nc(C)cc2C)c1 6.22%
COc1ccc(Nc2c(-c3ccccn3)nc3ccc(Cl)cn23)cc1 -3.29%
Cc1ccc(NC(=O)C2=CC(c3ccc4c(c3)OCO4)=NS(=O)(=O)N2C)cc1 -9.73%
